In the supplement of paper PMC11417369:
± gives the standard deviation of the averaged measurements. This is one part of the list.

What follows are sequences tested on PfAP2-G AP2 domain (GST-tagged) (assay: gcPBM binding intensity (ln(normalized median fluorescence intensity)); higher = stronger DNA binding).
Method in brief: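 Probes on an Agilent 4 × 180k array were primer-extended, double-stranded and 36 bp long, taken from intergenic genomic regions, with negative controls added. GST-tagged P. falciparum DNA-binding domains from E. coli, about 25 μg on average, were applied to the array for 1 h in 1× PBS containing 1% milk, 0.2 mg/ml BSA, 0.5% salmon testes DNA and 0.03% Triton X-100. Binding intensity, obtained after Alexa488 anti-GST antibody detection and a 488 nm scan, is the highest Masliner-normalised natural-log median intensity across replicate spots of either probe orientation.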

Row | Sequence | gcPBM binding intensity (ln)
1 | TGTGCACATAATTAGTGTACATTTTTTATTTAGACA [XGTACX_site317] | 11.4 ± 0.93
2 | AATGGCAAAATAGGCACACACACATATACATATATA [CACACA_site1058] | 10.2 ± 0.29
3 | CATATTTACATTAAGTGTACTTATGAATATATATAC [XGTACX_site7962] | 11.3 ± 0.79
4 | ATAATATTTTATAATTGTACTTTTTATAAATATAAA [XGTACX_site1940] | 11.3 ± 0.99
5 | AAAATACATATATATATATATAATATTGTTGTTAAA [GTGCAC_negctrl_site519] | 9.595 ± 0.007
6 | ATATTTTTTTTCATTTGTACACATAAAATTATATAG [XGTACX_site8260] | 11.5 ± 1
7 | AATATTTTATTTTTTCTCATTAAAAATTTTTTTTTT [CACACA_negctrl_site364] | 9.67 ± 0.23
8 | GATAGATAATATTTTAGTACATAAACAATTAAATAT [XGTACX_site4125] | 11.1 ± 0.86
9 | TTTTTATTTTTAGTAGTGCATTAATCATATGGTCAT [GTGCAC_site9879] | 10.5 ± 0.44
10 | TAAATAAATCCACATACACACACGACGCTAGTATAT [CACACA_site1060] | 10.02 ± 0.092
11 | ATTATTCGTTTTAAATGTACTCATATAAACGATAAA [XGTACX_site7866] | 11.4 ± 1.2
12 | CAAAAGAAGGTAAACACACACACACCCATACAAAAA [CACACA_site3765] | 10.4 ± 0.38
13 | TGAGACATGAATGCAAGTACAAAAAGGAGAACAAAA [XGTACX_site6183] | 11.2 ± 0.62
14 | TACATATATTTTTTATGTACTTACTTGTGTGTTTAT [XGTACX_site5126] | 11.4 ± 0.93
15 | TACAGAAATTTATATATATATATATATATATATATA [XGTACX_negctrl_site209] | 9.81 ± 0.68
16 | AAATCAAAAACGTTTACACACATTCTTATTTAAATA [CACACA_site790] | 10.04 ± 0.078
17 | AATAATTGCTAAAGGTGTACAATACGTATATAAGAA [XGTACX_site4910] | 11.6 ± 0.96
18 | TTTTATAATTTCAAAGGATTCTTTAATATTATAAAT [CACACA_negctrl_site1812] | 9.595 ± 0.021
19 | AAATTATATATAATAAATAATTTCTTTTTCTAAAAG [CACACA_negctrl_site8] | 9.68 ± 0.16
20 | AAAAAAAAAAAAAAAAGTACACACTTTTGCCTACAT [XGTACX_site6583] | 11.6 ± 0.86
21 | TTAATAACAAAATAAACACACATATATAAATACACA [CACACA_site6849] | 9.94 ± 0.014
22 | TTATATTTTTTTTGTAGTACATTATAGAATACACAC [XGTACX_site969] | 11.6 ± 1

Row | Sequence | gcPBM binding intensity (ln)
23 | TTAATCTTCATAAAATGTACAGAAGATTGAATATTC [XGTACX_site6213] | 10.7 ± 0.54
24 | TGAAAGTGTATTAAAGTGCATATTATTTTATCTACC [GTGCAC_site9969] | 10 ± 0.18
25 | AAATGTTGAAATGATACACACATATATATATATATA [CACACA_site2517] | 10.2 ± 0.45
26 | TTTATTAAAACAAAATGTACACACATATAATTTAAT [XGTACX_site1637] | 11.2 ± 0.68
27 | TAAATTCTGTTTAAAAGTACAAATAATATTGTGCCT [XGTACX_site7805] | 11.1 ± 0.73
28 | CCTATTTATATATACACACACATATATAAATAAATA [CACACA_site2991] | 10.2 ± 0.36
29 | AATATACACATTGTGAAATAACAAAAAAGGCAAAAA [CACACA_negctrl_site1014] | 9.93 ± 0.042
30 | AATCTATATTGACACACACACAAAAAAAAAAAAAAA [CACACA_site6739] | 10.1 ± 0.35
31 | ATTTTAACCAATTATTGTACTTGGTTATTCTTTTTT [XGTACX_site7453] | 11.1 ± 0.68
32 | ATATATATATTAAAGGTGCACAAATAAATATATACA [GTGCAC_site9532] | 10.4 ± 0.35
33 | ATATTTTTTTTCTTCACACACATGAATTATATATAA [CACACA_site3216] | 10.3 ± 0.33
34 | ATATATATTCATAATACACACATTCTGTAGCATTAT [CACACA_site2067] | 9.855 ± 0.035
35 | ATAGTATCTGGTAGCTGTACGAATGGTAGAGAGTAG [XGTACX_site2548] | 11.4 ± 0.59
36 | AATAAAAAGATATTCTCCTTGTTCCTTTTTTTTAAA [CACACA_negctrl_site1147] | 10.2 ± 0.2
37 | TATATATATGTATGATGTACATATATGCATATATAT [XGTACX_site3399] | 11 ± 0.79
38 | TTAATTAAATATTATACACACAAAAAAATAATTTTA [CACACA_site96] | 10 ± 0.16
39 | GTTAAAATAATATTATGTACATATATATAAAAATAT [XGTACX_site8512] | 11.3 ± 0.71
40 | GTTTGTAAATATTTTACACACATATTTATTTATATA [CACACA_site6632] | 9.86 ± 0.12
41 | TATAAATATGTGTTTACACACAATAATGAATTAAAA [CACACA_site6555] | 9.83 ± 0.11
42 | AACCTCAAATACACAAGTACGTATAATAAGGAACAA [XGTACX_site4304] | 11.4 ± 0.8
43 | CATATTAAAAATACATGTACATATATATTTAATATA [XGTACX_site8580] | 11.3 ± 0.91
44 | ATGGAAAAATGTATATATAAAATAAATATATTATAT [CACACA_negctrl_site1712] | 9.6 ± 0.2

Row | Sequence | gcPBM binding intensity (ln)
45 | TTTTAAATAAATCATGCATGCACATATAATTATATT [TGCATGCA_site151] | 9.865 ± 0.064
46 | TTATGAAAAAAATACTGTACACAATATGACGAAAGT [XGTACX_site2283] | 11.5 ± 0.7
47 | TATATATAATATATATGTACATATGTATAATATTTA [XGTACX_site4400] | 11 ± 0.45
48 | ATTCAATAATTGTTTTTTTTCTTTTTGTTTTTGTTT [GTGCAC_negctrl_site563] | 9.51 ± 0.22
49 | TATCTCATTTGGAATTGTACTAACAGATACTTGTTT [XGTACX_site2672] | 10.9 ± 0.54
50 | TATACGCATATTTTTACACACATATTTTTTCATATA [CACACA_site2546] | 10.02 ± 0.049
51 | TTTTACTAGATATATACACACATTATACCTATAGAT [CACACA_site7530] | 10.02 ± 0.014
52 | ACATTTTTTTTTTTTTTTTTTTTCTTACATCATGCA [CACACA_negctrl_site1413] | 10 ± 0.22
53 | ATATAAAGGTTTATTAGTACACATTAGAATACTTTT [XGTACX_site4492] | 11.3 ± 0.69
54 | GAAATATTTTGTTGTGCATGCGACATTAAATAAAAA [TGCATGCA_site331] | 10.3 ± 0.32
55 | AAATTATTGAAATACGCATGTGTTTTTTTTTTTTTT [TGCATGCA_site391] | 10.1 ± 0.12
56 | AATATTACGTCTGGACGTACAAATCTTTTTCGTGTC [XGTACX_site6644] | 11.5 ± 0.68
57 | CATATTAGGACAAAGTGTACATATATATATATATAT [XGTACX_site1172] | 11.4 ± 0.86
58 | ACATTCAATCTACTGTGTACATATTAAACTTTGAAA [XGTACX_site2913] | 11.4 ± 0.75
59 | TATTATATTTATTTATGTACACATATACTTAAATAA [XGTACX_site1355] | 11.4 ± 1
60 | TGTAATACAGAAAAAAGTACTAAAAAGAAAAGGATT [XGTACX_site3176] | 11.3 ± 0.61
61 | ACACCTATAAATTAAGTGCATTTTTTTTGATGTTAT | 9.78 ± 0.2
62 | TTTTTTTTTTTAATATGTACGTAAAATAAGTTTAAA [XGTACX_site6495] | 11.4 ± 0.95
63 | TACATCTGTATATAAACACACAACAAAAATGCTTAC [CACACA_site3814] | 9.95 ± 0.11
64 | AAATTAAATCCGCACGCACACACACCGATTAATAAA [CACACA_site9321] | 10.5 ± 0.43
65 | AATATATAAATAGATACACACATACATACATACATA [CACACA_site4301] | 10.1 ± 0.13
66 | AAAAAATATATATCACGTGGTAATATATATATATAT [XGTACX_negctrl_site252] | 10.13 ± 0.099

Row | Sequence | gcPBM binding intensity (ln)
67 | ATATATATACAACAAGCATGCAGTAATTTTTTTTTT [TGCATGCA_site728] | 9.505 ± 0.078
68 | CTATAATAACATAACACACACATGTATTTATAGGTG [CACACA_site6298] | 10.3 ± 0.11
69 | TCCTTATAAAAATACACACAAACTTTAATTAAAACA [CACACA_site3730] | 9.99 ± 0.2
70 | TAATCAACAAAATCTACACACTAAAATGAAATATAA [CACACA_site3749] | 9.94 ± 0.028
71 | AAATAAAAAGTAAAGCGTACAAATGATCAAATAATA [XGTACX_site7898] | 11.3 ± 0.9
72 | AGGCGTGAAATATACGTACACACATTATTTATATTT [CACACA_site2558] | 11.6 ± 1
73 | TATAAATAGATATATACACACTTGTGCAGAATATTA [CACACA_site7112] | 9.84 ± 0.071
74 | AGAAGTGTAAAAGTTACACACACAAACTTGTCATTT [CACACA_site4613] | 9.955 ± 0.007
75 | CCCAGGTGCTCGTAACGTACTTACATCAAATATTAT [XGTACX_site4617] | 11.2 ± 0.73
76 | TAACATTACTCTTAACTCTTTTGGATACCAACTTAT [XGTACX_negctrl_site82] | 10.3 ± 0.29
77 | AAATATTTATAAATTGCACACAAATAATAACATTAT [CACACA_site8737] | 9.925 ± 0.064
78 | ATAATAATATATACATGTACATATATATATATATAT [XGTACX_site3455] | 11 ± 0.52
79 | AAGAAAAAAAAAATTACACACTGCGCACATACACAA [CACACA_site6721] | 10.39 ± 0.099
80 | AGTAACTAATTAAATGCATGTCGATATATATTATAT [TGCATGCA_site1038] | 10.1 ± 0.23
81 | GTGTATATGTATATATGTACATAAATTTTTTTTTTT [XGTACX_site7083] | 11.1 ± 0.62
82 | ACTTATATAAAACATTAACACACAAAGAAAAAAAAT [CACACA_site8529] | 10.2 ± 0.33
83 | GATACACCAAATAACTGTACGCACGTGTAATATTAA [XGTACX_site3441] | 11.6 ± 0.83
84 | CATGTTCATCAGAACGCACACATAATGGTTTACTTA [CACACA_site898] | 10.24 ± 0.028
85 | TATATATATATATATACACACATATATACCTATATA [CACACA_site6085] | 10 ± 0.28
86 | AAAAAAAAGTTAAGCACACACATGAATAAATAATAC [CACACA_site840] | 10.2 ± 0.15
87 | TTAACCGGTTTATGGGTGCACATTCTTCTTAAATAA [GTGCAC_site9928] | 10.5 ± 0.34
88 | CCTAGAAAAGTATATACACACGCGCAAAATAAAATT [CACACA_site1413] | 10.4 ± 0.28
